Among the targets are COPS4 (UniProt Q9BT78); CUL2 (UniProt Q13617); GPS1 (UniProt Q13098).
What all share (assay): cross-linking mass spectrometry
Settings in all cases: not determined

A number of entries come with more than one value. This is not the full list of results. The source may hold further records. Some protein pairs were linked at several places, one record each.

Chain of COPS2 (P61201 whole entry): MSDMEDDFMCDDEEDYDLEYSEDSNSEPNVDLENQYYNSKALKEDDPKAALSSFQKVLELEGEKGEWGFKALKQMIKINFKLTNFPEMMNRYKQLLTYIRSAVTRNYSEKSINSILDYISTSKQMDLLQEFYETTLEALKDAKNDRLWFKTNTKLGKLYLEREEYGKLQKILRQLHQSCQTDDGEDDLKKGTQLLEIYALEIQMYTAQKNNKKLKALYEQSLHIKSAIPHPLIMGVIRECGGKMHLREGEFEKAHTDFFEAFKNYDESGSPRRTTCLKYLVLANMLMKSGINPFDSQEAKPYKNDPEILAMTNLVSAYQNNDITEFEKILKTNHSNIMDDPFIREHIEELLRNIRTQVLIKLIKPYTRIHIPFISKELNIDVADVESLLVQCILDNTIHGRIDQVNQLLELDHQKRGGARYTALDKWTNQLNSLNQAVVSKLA
Chain of UniProt Q13617 (Q13617 whole entry): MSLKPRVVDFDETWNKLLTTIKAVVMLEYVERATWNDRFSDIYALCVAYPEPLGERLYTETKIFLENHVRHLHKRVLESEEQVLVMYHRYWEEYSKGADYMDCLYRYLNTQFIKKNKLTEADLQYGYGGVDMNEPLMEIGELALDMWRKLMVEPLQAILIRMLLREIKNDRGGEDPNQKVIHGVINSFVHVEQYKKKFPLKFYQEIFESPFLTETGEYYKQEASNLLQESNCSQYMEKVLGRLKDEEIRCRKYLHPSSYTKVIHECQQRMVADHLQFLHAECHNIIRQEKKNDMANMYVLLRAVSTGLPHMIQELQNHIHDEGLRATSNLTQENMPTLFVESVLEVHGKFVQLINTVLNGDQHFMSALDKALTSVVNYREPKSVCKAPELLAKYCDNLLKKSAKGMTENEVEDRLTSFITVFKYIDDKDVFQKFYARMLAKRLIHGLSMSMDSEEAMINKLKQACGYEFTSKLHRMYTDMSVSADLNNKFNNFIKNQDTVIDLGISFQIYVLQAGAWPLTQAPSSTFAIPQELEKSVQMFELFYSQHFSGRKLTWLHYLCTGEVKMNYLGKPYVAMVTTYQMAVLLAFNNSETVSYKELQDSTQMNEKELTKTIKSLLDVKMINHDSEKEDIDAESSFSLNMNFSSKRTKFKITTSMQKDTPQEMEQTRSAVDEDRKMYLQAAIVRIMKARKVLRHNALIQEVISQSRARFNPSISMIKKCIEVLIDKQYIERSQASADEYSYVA
Chain of UniProt Q13098 (Q13098 whole entry): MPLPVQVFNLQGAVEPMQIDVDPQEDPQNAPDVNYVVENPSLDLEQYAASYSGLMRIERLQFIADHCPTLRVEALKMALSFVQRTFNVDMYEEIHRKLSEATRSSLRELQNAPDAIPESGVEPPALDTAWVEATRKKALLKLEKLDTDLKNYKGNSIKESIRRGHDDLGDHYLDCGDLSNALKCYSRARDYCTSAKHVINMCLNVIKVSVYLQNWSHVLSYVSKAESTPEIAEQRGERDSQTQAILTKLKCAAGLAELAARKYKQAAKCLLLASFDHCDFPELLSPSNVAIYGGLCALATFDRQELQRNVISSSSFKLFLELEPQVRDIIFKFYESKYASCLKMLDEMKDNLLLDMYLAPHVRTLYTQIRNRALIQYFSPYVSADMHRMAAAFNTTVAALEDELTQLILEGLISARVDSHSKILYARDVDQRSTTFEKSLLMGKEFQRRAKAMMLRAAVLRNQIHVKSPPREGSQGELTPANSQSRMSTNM

COPS2, P61201: the cross-linked residues result in the experiment with COPS4 is “K361 - K337 and K376 - K337”; with CUL2, “K64 - K404 and K157 - K489 and K225 - K462 and K263 - K462”; with GPS1, “K415 - K438 and K426 - K438”.

For the origin of these results see article PMC6707232.
